From the supplement of paper PMC4967469 come the findings set out here.

The IC50 comes from the fitted curve, where viability falls to half of the control; a fit beyond the top or the lowest dose is shown as a bound at that dose. AUC, from the same fit, is the share of area under the viability curve across the 256-fold dose range: 1 means no effect, lower means more sensitive. The top dose, if marked as inferred, comes from the curve model; the source does not state it.

Compound in the experiment: Cn1cc(C2=C(c3cn(C4CCN(Cc5ccccn5)CC4)c4ccccc34)C(=O)NC2=O)c2ccccc21 [LY317615]
Kind of experiment: Viability of human cancer cell lines after 72 h of drug (GDSC screen). The following applies: top dose inferred. The method, then:
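Human cancer cell lines in 384-well plates, medium with 10% serum, drug for 72 h over a 256-fold dose range (nine 2-fold or five 4-fold steps up to the top dose). Adherent lines were fixed and stained with the nucleic acid dye Syto60, suspension lines read with resazurin; signal relative to control wells, capped at 0 and 100%. One two-parameter sigmoid per drug and line, fitted in a mixed model over all curves with the slope shared within a line.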
The IC50 is the midpoint of a concentration-inhibition curve. For the cell line “CADO-ES1 (Ewing sarcoma, suspension, top dose 20 µM)”, the AUC worked out at 0.78 and the IC50 stood at 8.4 µM.

As for “DG-75 (Burkitt lymphoma, suspension, top dose 20 µM)”, the AUC was determined as 0.845 and the IC50 turned out to be 14.8 µM.

In the case of “SU-DHL-1 (anaplastic large cell lymphoma, suspension, top dose 20 µM)”, the AUC came to 0.892 and the IC50 stood at 12.1 µM.

Regarding “NCI-H226 (lung squamous cell carcinoma, adherent, top dose 20 µM)”, the AUC was 0.873 and the IC50 is more than 20 µM.

Turning to “HN (head and neck, adherent, top dose 20 µM)”, the AUC was 0.983 and the IC50 was more than 20 µM.

For the cell line “NCI-H1694 (small cell lung carcinoma, suspension, top dose 20 µM)”, the AUC is 0.983 and the IC50 is more than 20 µM.

“SU-DHL-10 (B-cell lymphoma, suspension, top dose 20 µM)”: the AUC came to 0.655 and the IC50 came out at 2.96 µM.

Regarding “VA-ES-BJ (soft tissue, adherent, top dose 20 µM)”, the AUC is 0.96 and the IC50 was more than 20 µM.

“SK-GT-4 (oesophagus, adherent, top dose 20 µM)”: the AUC was 0.69 and the IC50 stood at 4.88 µM.

In the case of “LOXIMVI (melanoma, semi-adherent, top dose 20 µM)”, the AUC came to 0.965 and the IC50 was more than 20 µM.

“RCM-1 (large intestine, adherent, top dose 20 µM)”: the AUC stood at 0.782 and the IC50 is 10.3 µM.

On to “KNS-81-FD (glioma, adherent, top dose 20 µM)”, for which the AUC is 0.974 and the IC50 was more than 20 µM.

Take “KALS-1 (glioma, adherent, top dose 20 µM)”: the AUC amounted to 0.871 and the IC50 is more than 20 µM.

Take “TE-15 (oesophagus, suspension, top dose 20 µM)”: the AUC came out at 0.572 and the IC50 was determined as 2.03 µM.

On to “LS-1034 (large intestine, adherent, top dose 20 µM)”, for which the AUC worked out at 0.721 and the IC50 turned out to be 5.71 µM.

On to “T-T (oesophagus, adherent, top dose 20 µM)”, for which the AUC came to 0.979 and the half-maximal inhibitory concentration (IC50) is more than 20 µM.

As to KGN (ovary, adherent, top dose 20 µM), the AUC was found to be 0.942 and the IC50 is more than 20 µM.

On to “CMK (acute myeloid leukaemia, suspension, top dose 20 µM)”, for which the AUC stood at 0.821 and the IC50 worked out at 9.34 µM.

Take “Mo-T (hairy cell leukaemia, suspension, top dose 20 µM)”: the AUC amounted to 0.805 and the half-maximal inhibitory concentration (IC50) stood at 10.3 µM.

In the case of “D-566MG (glioma, adherent, top dose 20 µM)”, the AUC turned out to be 0.535 and the IC50 came to 1.55 µM.

Turning to “NCI-H1048 (small cell lung carcinoma, adherent, top dose 20 µM)”, the AUC was found to be 0.953 and the IC50 was more than 20 µM.

As for “HH (T-cell leukaemia, suspension, top dose 20 µM)”, the AUC amounted to 0.721 and the IC50 stood at 6.61 µM.

As for “HCC1937 (breast, adherent, top dose 20 µM)”, the AUC is 0.725 and the IC50 was determined as 6.07 µM.

As for “SW837 (large intestine, adherent, top dose 20 µM)”, the AUC stood at 0.829 and the IC50 came out at 18.3 µM.

With “NCI-H2196 (small cell lung carcinoma, adherent, top dose 20 µM)”, the AUC is 0.969 and the IC50 was more than 20 µM.

“AsPC-1 (pancreas, adherent, top dose 20 µM)”: the AUC was determined as 0.762 and the IC50 amounted to 12.8 µM.

With “MKN45 (stomach, adherent, top dose 20 µM)”, the AUC came to 0.449 and the IC50 is 0.875 µM.

For the cell line “HEC-1 (endometrium, adherent, top dose 20 µM)”, the AUC stood at 0.939 and the IC50 is more than 20 µM.

Consider PA-1 (ovary, adherent, top dose 20 µM), for which the AUC was 0.811 and the IC50 was found to be 7.89 µM.

With “KLE (endometrium, adherent, top dose 20 µM)”, the AUC turned out to be 0.535 and the IC50 amounted to 1.64 µM.

On to “BT-483 (breast, adherent, top dose 20 µM)”, for which the AUC came to 0.678 and the IC50 turned out to be 6.14 µM.

As for “KYSE-140 (oesophagus, adherent, top dose 20 µM)”, the AUC amounted to 0.723 and the IC50 was determined as 5.92 µM.

In the case of “Daoy (medulloblastoma, adherent, top dose 20 µM)”, the AUC is 0.909 and the IC50 was more than 20 µM.

With “OVCA420 (ovary, adherent, top dose 20 µM)”, the AUC was 0.897 and the IC50 is more than 20 µM.

“Caov-3 (ovary, adherent, top dose 20 µM)”: the AUC stood at 0.937 and the IC50 is more than 20 µM.

For the cell line “HOS (osteosarcoma, adherent, top dose 20 µM)”, the AUC stood at 0.99 and the IC50 was more than 20 µM.

For the cell line “SF539 (glioma, adherent, top dose 20 µM)”, the AUC came out at 0.878 and the IC50 was determined as 16.7 µM.

For “COR-L105 (lung adenocarcinoma, adherent, top dose 20 µM)”, the AUC is 0.86 and the IC50 was more than 20 µM.

With “OVCA433 (ovary, adherent, top dose 20 µM)”, the AUC stood at 0.862 and the IC50 is more than 20 µM.

For “A253 (head and neck, adherent, top dose 20 µM)”, the AUC was 0.913 and the IC50 is more than 20 µM.

In the case of “COLO-829 (melanoma, adherent, top dose 20 µM)”, the AUC was found to be 0.776 and the concentration for half-maximal inhibition (IC50) worked out at 12.2 µM.

Turning to “HCC1143 (breast, adherent, top dose 20 µM)”, the AUC was 0.716 and the IC50 came to 6.6 µM.

With “U-118-MG (glioma, adherent, top dose 20 µM)”, the AUC amounted to 0.986 and the IC50 is more than 20 µM.

Regarding “UACC-62 (melanoma, adherent, top dose 20 µM)”, the AUC amounted to 0.986 and the IC50 is more than 20 µM.

Turning to “TGBC1TKB (biliary tract, adherent, top dose 20 µM)”, the AUC was found to be 0.924 and the IC50 was more than 20 µM.

Regarding “Saos-2 (osteosarcoma, adherent, top dose 20 µM)”, the AUC is 0.981 and the IC50 is more than 20 µM.

With “HOP-92 (large cell lung carcinoma, adherent, top dose 20 µM)”, the AUC amounted to 0.984 and the IC50 was more than 20 µM.

As for “TT2609-C02 (thyroid, adherent, top dose 20 µM)”, the AUC turned out to be 0.76 and the IC50 worked out at 7.46 µM.

On to “COLO-783 (melanoma, adherent, top dose 20 µM)”, for which the AUC was 0.989 and the IC50 is more than 20 µM.

In the case of “NCI-H1395 (lung adenocarcinoma, adherent, top dose 20 µM)”, the AUC came to 0.782 and the concentration for half-maximal inhibition (IC50) was found to be 11.4 µM.

Consider “EoL-1-cell (haematopoietic neoplasm, suspension, top dose 20 µM)”, for which the AUC came to 0.819 and the IC50 stood at 9.67 µM.

For the cell line “NCI-H69 (small cell lung carcinoma, suspension, top dose 20 µM)”, the AUC was 0.932 and the IC50 is more than 20 µM.

Regarding “EFM-19 (breast, adherent, top dose 20 µM)”, the AUC came to 0.36 and the IC50 was found to be 0.42 µM.

For “KYSE-180 (oesophagus, adherent, top dose 20 µM)”, the AUC was determined as 0.947 and the IC50 is more than 20 µM.

Regarding “HCC-827 (lung adenocarcinoma, adherent, top dose 20 µM)”, the AUC stood at 0.967 and the IC50 was more than 20 µM.

With “KARPAS-620 (haematopoietic neoplasm, suspension, top dose 20 µM)”, the AUC amounted to 0.858 and the IC50 was 12.8 µM.

Turning to “NCI-H1770 (non-small cell lung carcinoma, suspension, top dose 20 µM)”, the AUC came to 0.903 and the IC50 is more than 20 µM.

Turning to “JiyoyeP-2003 (Burkitt lymphoma, suspension, top dose 20 µM)”, the AUC is 0.882 and the IC50 was found to be 16.8 µM.

For the cell line “NCI-H2444 (non-small cell lung carcinoma, adherent, top dose 20 µM)”, the AUC is 0.953 and the half-inhibitory concentration (IC50) is more than 20 µM.

Turning to “EVSA-T (breast, adherent, top dose 20 µM)”, the AUC was determined as 0.975 and the IC50 is more than 20 µM.

Turning to “EKVX (lung adenocarcinoma, adherent, top dose 20 µM)”, the AUC came out at 0.918 and the IC50 is more than 20 µM.

On to “SK-LU-1 (lung adenocarcinoma, adherent, top dose 20 µM)”, for which the AUC came out at 0.631 and the IC50 stood at 3.18 µM.

Turning to “ES5 (Ewing sarcoma, adherent, top dose 20 µM)”, the AUC turned out to be 0.641 and the IC50 was 3.25 µM.

Consider “MC-CAR (haematopoietic neoplasm, suspension, top dose 20 µM)”, for which the AUC is 0.655 and the IC50 is 3.18 µM.

In the case of “HCC1395 (breast, adherent, top dose 20 µM)”, the AUC amounted to 0.877 and the IC50 was more than 20 µM.
